Source: the supplement of paper PMC4967469
The IC50 comes from the fitted curve, where viability falls to half of the control; a limit (>, <) means that the fit lies beyond the doses tested. AUC is the area under the same curve over the 256-fold range up to the top dose, as a fraction; values near 1 show little effect. An inferred top dose was calculated from the reported fits. An entry number marks a drug with two screens in the source, which often give different values.

These cell lines were tested with NC(=O)[C@@H](CCC(F)(F)F)N(Cc1ccc(-c2ncon2)cc1F)S(=O)(=O)c1ccc(Cl)cc1 [BMS-708163] (assay: Viability of human cancer cell lines after 72 h of drug (GDSC screen)). Details: screen: GDSC drug entry 205; top dose inferred.
Protocol: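 Human cancer cell lines in 384-well plates, medium with 10% serum, drug for 72 h over a 256-fold dose range (nine 2-fold or five 4-fold steps up to the top dose). Adherent lines were fixed and stained with the nucleic acid dye Syto60, suspension lines read with resazurin; signal relative to control wells, capped at 0 and 100%. One two-parameter sigmoid per drug and line, fitted in a mixed model over all curves with the slope shared within a line.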

| Cell Line | AUC | IC50 [µM] |
| --- | --- | --- |
| H290 (mesothelioma, adherent, top dose 10.24 µM) | 0.988 | > 10.2 |
| FU97 (stomach, adherent, top dose 10.24 µM) | 0.985 | > 10.2 |
| KYSE-520 (oesophagus, adherent, top dose 10.24 µM) | 0.982 | > 10.2 |
| SK-OV-3 (ovary, adherent, top dose 10.24 µM) | 0.981 | > 10.2 |
| HCC1806 (breast, adherent, top dose 10.24 µM) | 0.981 | > 10.2 |
| NCI-H1568 (lung adenocarcinoma, adherent, top dose 10.24 µM) | 0.977 | > 10.2 |
| IMR-5 (neuroblastoma, adherent, top dose 10.24 µM) | 0.975 | > 10.2 |
| EW-1 (Ewing sarcoma, semi-adherent, top dose 10.24 µM) | 0.988 | > 10.2 |
| HuH-7 (liver, adherent, top dose 10.24 µM) | 0.987 | > 10.2 |
| H4 (glioma, adherent, top dose 10.24 µM) | 0.986 | > 10.2 |
| C2BBe1 (large intestine, adherent, top dose 10.24 µM) | 0.961 | > 10.2 |
| LU-135 (small cell lung carcinoma, suspension, top dose 10.24 µM) | 0.989 | > 10.2 |
| NB17 (neuroblastoma, adherent, top dose 10.24 µM) | 0.982 | > 10.2 |
| BEN (non-small cell lung carcinoma, adherent, top dose 10.24 µM) | 0.984 | > 10.2 |
| NCI-H82 (small cell lung carcinoma, suspension, top dose 10.24 µM) | 0.988 | > 10.2 |
| NCI-H1581 (large cell lung carcinoma, semi-adherent, top dose 10.24 µM) | 0.99 | > 10.2 |
| BHY (head and neck, adherent, top dose 10.24 µM) | 0.987 | > 10.2 |
| KYM-1 (rhabdomyosarcoma, adherent, top dose 10.24 µM) | 0.99 | > 10.2 |
| Raji (Burkitt lymphoma, suspension, top dose 10.24 µM) | 0.99 | > 10.2 |
| NCI-H2347 (lung adenocarcinoma, adherent, top dose 10.24 µM) | 0.976 | > 10.2 |

| Cell Line | AUC | IC50 [µM] |
| --- | --- | --- |
| 647-V (bladder, adherent, top dose 10.24 µM) | 0.987 | > 10.2 |
| NCI-H345 (small cell lung carcinoma, suspension, top dose 10.24 µM) | 0.99 | > 10.2 |
| COLO-680N (oesophagus, adherent, top dose 10.24 µM) | 0.986 | > 10.2 |
| MSTO-211H (mesothelioma, adherent, top dose 10.24 µM) | 0.991 | > 10.2 |
| NCI-H2135 (non-small cell lung carcinoma, adherent, top dose 10.24 µM) | 0.989 | > 10.2 |
| TALL-1 (T-cell lymphoblastic leukaemia, suspension, top dose 10.24 µM) | 0.99 | > 10.2 |
| EoL-1-cell (haematopoietic neoplasm, suspension, top dose 10.24 µM) | 0.988 | > 10.2 |
| KU812 (chronic myeloid leukaemia, suspension, top dose 10.24 µM) | 0.98 | > 10.2 |
| 769-P (kidney, adherent, top dose 10.24 µM) | 0.98 | > 10.2 |
| TGW (neuroblastoma, adherent, top dose 10.24 µM) | 0.992 | > 10.2 |
| NCI-H661 (large cell lung carcinoma, adherent, top dose 10.24 µM) | 0.982 | > 10.2 |
| 8505C (thyroid, adherent, top dose 10.24 µM) | 0.983 | > 10.2 |
| NCI-H1355 (lung adenocarcinoma, adherent, top dose 10.24 µM) | 0.978 | > 10.2 |
| VMRC-RCZ (kidney, adherent, top dose 10.24 µM) | 0.98 | > 10.2 |
| EB2 (Burkitt lymphoma, suspension, top dose 10.24 µM) | 0.988 | > 10.2 |
| SU-DHL-4 (B-cell lymphoma, suspension, top dose 10.24 µM) | 0.997 | > 10.2 |
| A253 (head and neck, adherent, top dose 10.24 µM) | 0.988 | > 10.2 |
| SK-MEL-30 (melanoma, adherent, top dose 10.24 µM) | 0.981 | > 10.2 |
| A204 (rhabdomyosarcoma, adherent, top dose 10.24 µM) | 0.978 | > 10.2 |
